The source gives no read counts; variants with many changes may rest on few reads.
B1: LINE1-mini (parent)
chain: GGCAGAGCUCAACACAGCGUGGCAAAGUGGCUGUGGCUAGACUGCC

Variants of: B1
Test: self-cleavage, relative activity (ratio to wild type); higher = more cleavage; in vitro, sequencing; the parent is a self-cleaving ribozyme

Variant | self-cleavage
A12C A14C G17U C37A A41G | 0
A12C A14C U43A | 0.01
A12C A14G C23A | 0.02
A12C A14G C37G | 0.02
A12C A14G G29U | 0.19
A12C A14G G44A | 0.06
A12C A14U C18A U28G G44U | 0
A12C A14U G19A C23A G30A G35A | 0.03
A12C A14U G27A | 0.02
A12C A14U G27C | 0.01
A12C A14U U28A G40U | 0.01
A12C A16C C18U | 0.05
A12C A16C G27U | 0.01
A12C A16C G36U U38A | 0.1
A12C A16G G21U A39C | 0.01
A12C A16G G40U | 0.02
A12C A16G U20C | 0.02
A12C A16U A26C C31A | 0
A12C A16U G17C C18U A26U | 0.04
A12C A16U G29A U43C | 0.01
A12C A24C C37A | 0.02

Variant | self-cleavage
A12C A24C G27U U34A | 0.06
A12C A25C A39G C45A | 0.02
A12C A25G G44U | 0.05
A12C A25U U28C G30A A39C | 0.02
A12C A25U U28G | 0.02
A12C A26C G27U U38A | 0.01
A12C A26C U34G | 0.01
A12C A26G A39U C42G | 0
A12C A26G G27U | 0
A12C A26U C31G | 0.01
A12C A26U G36C U43C | 0
A12C A26U U28A C46U | 0.01
A12C A39U G40U | 0.01
A12C C13A A41G | 0.04
A12C C13A C31U | 0.01
A12C C13A G17C | 0.09
A12C C13A G44U | 0.04
A12C C13G C18G A24C A41G | 0.02
A12C C13U C23G G36A | 0.02
A12C C13U G21U G40C | 0.08
A12C C13U G29U U32C G44C | 0.04

Variant | self-cleavage
A12C C13U G33A G40U | 0
A12C C13U U34A | 0.01
A12C C15A A25U U38G A39U | 0.01
A12C C15A G27U G36A G40A G44U C45U | 0.01
A12C C15A G44C | 0.01
A12C C15A U43C | 0.01
A12C C15G C18U G35C C42G | 0.01
A12C C15G G19U G33U G40A | 0
A12C C15G G27U U43A G44A | 0.04
A12C C15G G30A C42A | 0
A12C C15G G30A G36C U43A | 0
A12C C15G G33C U38G | 0
A12C C15G U20G A25G G44U | 0.02
A12C C15G U38A | 0.03
A12C C15U A16U G19C G35C C37U | 0.04
A12C C15U A26U | 0.13
A12C C18A A25U G27U U32G | 0.03
A12C C18A G19A A24U A41C | 0
A12C C18A G27U G36U | 0.03
A12C C18A G40U | 0.01
A12C C18A U28A G30U G40C | 0.01

Variant | self-cleavage
A12C C18A U38C C42G | 0.04
A12C C18G C31U A39U | 0.02
A12C C18G G22U G27U G30A | 0
A12C C18G U32A G44U | 0.01
A12C C18G U34G | 0
A12C C18U G33A | 0.01
A12C C18U G33C G36C | 0.02
A12C C18U U34G G36U | 0.01
A12C C23A A25C G35U | 0.01
A12C C23A A26C G30C C42U | 0.01
A12C C23A C37U | 0
A12C C23A G27U G33U | 0.02
A12C C23A G36U C45A | 0.02
A12C C23G A24G C45U | 0.01
A12C C23G G29A U38C | 0.02
A12C C23G G30A C31A C46U | 0
A12C C23G G35A | 0.05
A12C C23G U28G G44U | 0.01
A12C C23U C42A | 0.05
A12C C23U G35A G44U | 0

Source: the RNAGym collection of RNA variant scans (doi:10.7554/elife.90254)
